Measured values reported in the BET-seq Pho4 binding data (Le et al. 2018).
Some of the results follow. These are noisy estimates, calculated here from bound and input reads.

molecular target: T1, Pho4 (S. cerevisiae) (UniProt P07270); assay: relative binding free energy (BET-seq); higher = weaker binding; conditions: reference: library average
T1 sequence: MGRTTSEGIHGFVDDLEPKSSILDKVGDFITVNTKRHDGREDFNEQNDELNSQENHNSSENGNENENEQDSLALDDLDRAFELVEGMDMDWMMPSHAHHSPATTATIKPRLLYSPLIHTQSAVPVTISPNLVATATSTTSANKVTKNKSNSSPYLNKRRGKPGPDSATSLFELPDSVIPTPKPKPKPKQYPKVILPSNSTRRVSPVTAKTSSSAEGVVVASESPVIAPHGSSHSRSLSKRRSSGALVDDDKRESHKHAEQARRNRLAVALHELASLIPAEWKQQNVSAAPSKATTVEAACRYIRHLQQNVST

Which “relative binding free energy” value does the source give for AATGGCACGTGAAGGC here?
The value was 0.11 kcal/mol.

TGTATCACGTGCTAGG was tested. Which “relative binding free energy” value did it give?
Its value is 0.04 kcal/mol.

With GTTCACACGTGAGGGT as the sequence, how does the “relative binding free energy” value read?
The value was 0.16 kcal/mol.

GGTATCACGTGTCTGT was tested. Which “relative binding free energy” value did it give?
Its value is 0.19 kcal/mol.

For CTGACCACGTGTTGGG, which “relative binding free energy” value is on record?
Its value is 0.08 kcal/mol.

For CGAGGCACGTGAGATG, which “relative binding free energy” value is on record?
Its value is 0.2 kcal/mol.

For GTGGACACGTGCGGGG, which “relative binding free energy” value is on record?
Its value is 0.06 kcal/mol.

With TGAGGCACGTGGCGGC as the sequence, how does the “relative binding free energy” value read?
The value was -0.13 kcal/mol.

For CTTGGCACGTGCGTGT, which “relative binding free energy” value is on record?
Its value is -0.28 kcal/mol.

For TGGTGCACGTGACTTA, which “relative binding free energy” value is on record?
Its value is 0.07 kcal/mol.

For GGTTTCACGTGAGGTG, which “relative binding free energy” value is on record?
The value was 0.48 kcal/mol.

CATATCACGTGGTTTA was tested. Which “relative binding free energy” value did it give?
The value was 0.06 kcal/mol.

With GTTGACACGTGATAGA as the sequence, how does the “relative binding free energy” value read?
Its value is 0.1 kcal/mol.

Which “relative binding free energy” value does the source give for GTCTTCACGTGGGTAG here?
The value was 0.12 kcal/mol.

Which “relative binding free energy” value does the source give for TGTGCCACGTGTGGAT here?
The value was -0.03 kcal/mol.

Which “relative binding free energy” value does the source give for TTTTACACGTGGGGTG here?
Its value is -0.01 kcal/mol.

Which “relative binding free energy” value does the source give for TAGTGCACGTGGAGGC here?
The value was -0.02 kcal/mol.

TGGGGCACGTGCGGGG was tested. Which “relative binding free energy” value did it give?
Its value is -0.18 kcal/mol.

Which “relative binding free energy” value does the source give for AGGGCCACGTGTGGAT here?
Its value is -0.09 kcal/mol.

GTATACACGTGGATTT was tested. Which “relative binding free energy” value did it give?
Its value is 0.06 kcal/mol.

Which “relative binding free energy” value does the source give for GCTTTCACGTGGTGAG here?
The value was 0.18 kcal/mol.

Which “relative binding free energy” value does the source give for GTGGGCACGTGGGAGT here?
The value was -0.18 kcal/mol.

With GTTTACACGTGCGCTG as the sequence, how does the “relative binding free energy” value read?
The value was 0.09 kcal/mol.

GGGAACACGTGAGTGA was tested. Which “relative binding free energy” value did it give?
The value was 0.27 kcal/mol.

TCTTACACGTGTTTAG was tested. Which “relative binding free energy” value did it give?
Its value is 0.05 kcal/mol.

GATGGCACGTGGTACG was tested. Which “relative binding free energy” value did it give?
Its value is -0.15 kcal/mol.

Which “relative binding free energy” value does the source give for TCAGGCACGTGGCGGT here?
The value was -0.22 kcal/mol.

How did the “relative binding free energy” value turn out when AGTTCCACGTGGAAGG was run?
Its value is 0.23 kcal/mol.

How did the “relative binding free energy” value turn out when GGAGGCACGTGTAGCG was run?
Its value is -0.18 kcal/mol.

Which “relative binding free energy” value does the source give for TTGGGCACGTGAGAGC here?
The value was 0.15 kcal/mol.

How did the “relative binding free energy” value turn out when ATTTTCACGTGATTTC was run?
The value was 0.47 kcal/mol.

With TGTTTCACGTGAGAGT as the sequence, how does the “relative binding free energy” value read?
The value was 0.5 kcal/mol.

GTGTCCACGTGTTTTA was tested. Which “relative binding free energy” value did it give?
Its value is -0.01 kcal/mol.

With TCTACCACGTGTTTGT as the sequence, how does the “relative binding free energy” value read?
Its value is 0.08 kcal/mol.

With TGGGACACGTGAGGTT as the sequence, how does the “relative binding free energy” value read?
The value was 0.36 kcal/mol.

With ATTTGCACGTGTCGGA as the sequence, how does the “relative binding free energy” value read?
The value was 0.08 kcal/mol.

With GTAAGCACGTGTCCGG as the sequence, how does the “relative binding free energy” value read?
Its value is -0.04 kcal/mol.

Which “relative binding free energy” value does the source give for CTTTGCACGTGAAGTT here?
The value was 0.18 kcal/mol.

With TTGTTCACGTGAGTTC as the sequence, how does the “relative binding free energy” value read?
The value was 0.35 kcal/mol.

Which “relative binding free energy” value does the source give for AAATGCACGTGGTGTT here?
Its value is -0.16 kcal/mol.

With GAGCACACGTGTGTTT as the sequence, how does the “relative binding free energy” value read?
Its value is 0.37 kcal/mol.

ATTAGCACGTGGGCTA was tested. Which “relative binding free energy” value did it give?
Its value is -0.28 kcal/mol.

With GAGGACACGTGTCGGG as the sequence, how does the “relative binding free energy” value read?
The value was 0.21 kcal/mol.

How did the “relative binding free energy” value turn out when TATTACACGTGCGTAT was run?
The value was 0.11 kcal/mol.

With CGGACCACGTGTGGGG as the sequence, how does the “relative binding free energy” value read?
Its value is -0.11 kcal/mol.

TATTTCACGTGGAAAG was tested. Which “relative binding free energy” value did it give?
Its value is 0.17 kcal/mol.

How did the “relative binding free energy” value turn out when GCGTGCACGTGTCTGG was run?
Its value is -0.03 kcal/mol.

Which “relative binding free energy” value does the source give for TATGTCACGTGTATGA here?
Its value is 0.08 kcal/mol.

For ATTGTCACGTGAGACT, which “relative binding free energy” value is on record?
Its value is 0.34 kcal/mol.

How did the “relative binding free energy” value turn out when GGGCCCACGTGGAGGG was run?
The value was -0.16 kcal/mol.

For GGCTGCACGTGTTATG, which “relative binding free energy” value is on record?
Its value is 0.05 kcal/mol.

Which “relative binding free energy” value does the source give for TAGATCACGTGGGTGG here?
Its value is 0.01 kcal/mol.

How did the “relative binding free energy” value turn out when TAGTACACGTGTGAGT was run?
Its value is 0.12 kcal/mol.

GTTTCCACGTGTGTGC was tested. Which “relative binding free energy” value did it give?
The value was 0.26 kcal/mol.

How did the “relative binding free energy” value turn out when GGACTCACGTGTATAT was run?
Its value is 0.28 kcal/mol.

With CGCATCACGTGGGTGG as the sequence, how does the “relative binding free energy” value read?
The value was -0.04 kcal/mol.

How did the “relative binding free energy” value turn out when GGTGTCACGTGGCTGA was run?
Its value is 0 kcal/mol.

With AGAGGCACGTGCGGCG as the sequence, how does the “relative binding free energy” value read?
The value was -0.21 kcal/mol.

Which “relative binding free energy” value does the source give for CGGGTCACGTGTGTTA here?
Its value is 0.11 kcal/mol.

How did the “relative binding free energy” value turn out when GAATGCACGTGGTTCT was run?
The value was 0.11 kcal/mol.

GTTGGCACGTGTGTCA was tested. Which “relative binding free energy” value did it give?
The value was 0.01 kcal/mol.

With GTAAGCACGTGGTGTT as the sequence, how does the “relative binding free energy” value read?
Its value is -0.1 kcal/mol.

TATTACACGTGAAAGG was tested. Which “relative binding free energy” value did it give?
The value was 0.29 kcal/mol.

CTTGACACGTGGGAGT was tested. Which “relative binding free energy” value did it give?
The value was -0.07 kcal/mol.

How did the “relative binding free energy” value turn out when TGCTACACGTGGAGGG was run?
Its value is 0.08 kcal/mol.

How did the “relative binding free energy” value turn out when CTTGGCACGTGGTTCG was run?
The value was 0 kcal/mol.

Which “relative binding free energy” value does the source give for TGGTTCACGTGATTCT here?
Its value is 0.14 kcal/mol.

With TGCTTCACGTGCTTTG as the sequence, how does the “relative binding free energy” value read?
The value was 0.26 kcal/mol.

AAGAGCACGTGGGTGT was tested. Which “relative binding free energy” value did it give?
Its value is -0.24 kcal/mol.

For ATGGACACGTGGCGTA, which “relative binding free energy” value is on record?
Its value is -0.16 kcal/mol.

For TTGGGCACGTGCGAAT, which “relative binding free energy” value is on record?
Its value is -0.19 kcal/mol.

How did the “relative binding free energy” value turn out when TACCGCACGTGTGGGT was run?
Its value is -0.02 kcal/mol.

Which “relative binding free energy” value does the source give for TTTTTCACGTGATCAG here?
Its value is 0.25 kcal/mol.

How did the “relative binding free energy” value turn out when TAGTACACGTGAGGCG was run?
Its value is 0.24 kcal/mol.

For TTATTCACGTGGTGAT, which “relative binding free energy” value is on record?
Its value is 0.23 kcal/mol.

How did the “relative binding free energy” value turn out when GTTGTCACGTGGAGTT was run?
Its value is 0.23 kcal/mol.

ATTGGCACGTGGCGGT was tested. Which “relative binding free energy” value did it give?
The value was -0.18 kcal/mol.

Which “relative binding free energy” value does the source give for TTTTGCACGTGGCAGA here?
Its value is -0.03 kcal/mol.

With GAGCTCACGTGGGGGA as the sequence, how does the “relative binding free energy” value read?
Its value is 0.17 kcal/mol.

ATGCACACGTGTTTGT was tested. Which “relative binding free energy” value did it give?
The value was -0.06 kcal/mol.

With TTTATCACGTGTTGAA as the sequence, how does the “relative binding free energy” value read?
Its value is 0.11 kcal/mol.

With TAAGGCACGTGGTAGT as the sequence, how does the “relative binding free energy” value read?
Its value is -0.3 kcal/mol.

For GTCGTCACGTGTAGGC, which “relative binding free energy” value is on record?
The value was 0.11 kcal/mol.

For TTTTGCACGTGAAGTC, which “relative binding free energy” value is on record?
Its value is 0.29 kcal/mol.

Which “relative binding free energy” value does the source give for GTTATCACGTGCCTTT here?
The value was 0.17 kcal/mol.

TATTTCACGTGAATGA was tested. Which “relative binding free energy” value did it give?
Its value is 0.4 kcal/mol.

With GTAGACACGTGGGTTG as the sequence, how does the “relative binding free energy” value read?
The value was -0.19 kcal/mol.

Which “relative binding free energy” value does the source give for TTTAACACGTGGGAGC here?
The value was -0.03 kcal/mol.

For GAGTACACGTGGCTGG, which “relative binding free energy” value is on record?
The value was 0.12 kcal/mol.

AAGGACACGTGAGATT was tested. Which “relative binding free energy” value did it give?
Its value is 0.36 kcal/mol.

For CGGTGCACGTGATGCG, which “relative binding free energy” value is on record?
Its value is 0.03 kcal/mol.

For GAGTGCACGTGGGAGC, which “relative binding free energy” value is on record?
The value was -0.03 kcal/mol.

How did the “relative binding free energy” value turn out when TGCTTCACGTGGTGTA was run?
Its value is 0.06 kcal/mol.

GGAGTCACGTGAGAAG was tested. Which “relative binding free energy” value did it give?
Its value is 0.39 kcal/mol.

For AGAGGCACGTGGAAGA, which “relative binding free energy” value is on record?
The value was 0 kcal/mol.

For TGAGGCACGTGAATAG, which “relative binding free energy” value is on record?
The value was 0.08 kcal/mol.

For TAAGGCACGTGGTTCA, which “relative binding free energy” value is on record?
The value was -0.27 kcal/mol.

For TAATTCACGTGATGGC, which “relative binding free energy” value is on record?
The value was 0.33 kcal/mol.

With TATCGCACGTGGGGCT as the sequence, how does the “relative binding free energy” value read?
Its value is -0.25 kcal/mol.

With CAGAGCACGTGTGGGT as the sequence, how does the “relative binding free energy” value read?
The value was -0.04 kcal/mol.

For AAATTCACGTGTTGGG, which “relative binding free energy” value is on record?
The value was 0.18 kcal/mol.

For GATTTCACGTGAGGTT, which “relative binding free energy” value is on record?
Its value is 0.46 kcal/mol.

How did the “relative binding free energy” value turn out when ATAGACACGTGTGTCG was run?
Its value is -0.08 kcal/mol.

For GTAATCACGTGGTTAA, which “relative binding free energy” value is on record?
The value was 0.07 kcal/mol.

GTGGGCACGTGATAGT was tested. Which “relative binding free energy” value did it give?
Its value is -0.08 kcal/mol.

TCGTGCACGTGGATTT was tested. Which “relative binding free energy” value did it give?
Its value is 0.17 kcal/mol.

For TAAAACACGTGTTTTT, which “relative binding free energy” value is on record?
The value was 0.02 kcal/mol.

Which “relative binding free energy” value does the source give for TATCTCACGTGTTCTT here?
Its value is 0.24 kcal/mol.

How did the “relative binding free energy” value turn out when TGAGTCACGTGTGAAT was run?
Its value is 0.32 kcal/mol.

For TGGTCCACGTGGGTTC, which “relative binding free energy” value is on record?
The value was -0.06 kcal/mol.

With GTCAGCACGTGGCGTG as the sequence, how does the “relative binding free energy” value read?
Its value is -0.05 kcal/mol.

Which “relative binding free energy” value does the source give for CTGTTCACGTGTCAGG here?
The value was 0.2 kcal/mol.

Which “relative binding free energy” value does the source give for TATGGCACGTGTAGGC here?
The value was 0.07 kcal/mol.

How did the “relative binding free energy” value turn out when GATGACACGTGAGTAG was run?
Its value is 0.31 kcal/mol.

With GGCAGCACGTGGTTTG as the sequence, how does the “relative binding free energy” value read?
The value was -0.08 kcal/mol.
